Source: PubChem BioAssay AID493208 (National Center for Advancing Translational Sciences (NCATS), 2011)
About 340 (0.77%) of roughly 44,000 compounds were called active. About 5% were inconclusive and are not listed. Calls follow the shape of the dose curve; as a rule, active = well fitted inhibition curve with a large enough effect; inconclusive = small, poorly fitted or top-dose-only effect; inactive = flat fitted curve, though single readings scatter. The list shows a part of the results.

Assay: Acumen qHTS Assay for Inhibitors of the mTORC1 Signaling Pathway in MEF (Tsc2-/-, p53-/-) Cells: Sytravon;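 also: plate controls were DMSO for no effect and rapamycin for full effect; nearly all actives have a fitted effect of over 50% in size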
Settings: phospho-rpS6 immunofluorescence/PI, 24 h; series mostly up to 38.3 µM; activity change, negative = inhibition: at the top concentration
Procedure, shortened: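 Compounds act on Tsc2-/-, p53-/- fibroblasts carrying an empty vector for 24 h before fixation and dual staining for phospho-S6 and DNA (propidium iodide). Values are percentages of cells above a rapamycin-defined pS6/PI threshold.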

Activity change, negative = inhibition, inactive:
O=C(CN1CCCN(Cc2cccc(Cl)c2)S1(=O)=O)Nc1ccc2c(c1)OCCO2 0%
CCC(=O)Nc1ccc(Cl)c(-c2nc3ccccc3[nH]2)c1 -9.44%
COc1ccccc1CNC(=O)CCc1c(C)nc2cc(-c3ccc(Cl)cc3)nn2c1C -2.44%
Cc1cccc(NC(=O)c2ccc(-n3c(C)nnc3C)cc2)c1 -11.5%
Cc1ccc(-n2ncc3c(N4CCCCCC4)ncnc32)cc1Cl 0.477%
COc1c(Cl)cc(Cl)cc1C(=O)Nc1cccc(-c2nc3ccccc3o2)c1C -4.17%
O=S(=O)(c1ccc(F)cc1)N1CCC(Oc2cccc(C(F)(F)F)c2)CC1 -8.21%
CCc1ccccc1NC(=O)c1cn(C)c(=O)c2ccccc12 3.28%
CCn1c(COc2ccc(Cl)cc2Cl)nc2ccccc21 7.74%
COc1ccc(S(=O)(=O)N2Cc3ccccc3CC2C(=O)Nc2ccc(C)cc2)cc1OC (stereo unspecified) -2.64%
COc1cccc(CNC(=O)C(=O)NCC(c2cccs2)S(=O)(=O)c2ccccc2)c1 (stereo unspecified) -11.1%
Cc1cccc(CCNC(=O)c2cc(S(=O)(=O)N3CCCCC3)c[nH]2)c1 0%
Cc1c2cnn(-c3ccccc3)c(=O)c2c(C)n1C(C)C(=O)Nc1ccccc1C(F)(F)F (stereo unspecified) 0.97%
Cc1cccc(N2CCN(C(=O)c3ccc4c(c3)N(Cc3ccccc3)C(=O)c3ccccc3S4(=O)=O)CC2C)c1 (stereo unspecified) -1.86%
CCOC(=O)CC(NC(=O)Cn1nnc(-c2ccccc2Cl)n1)c1ccc(OC)cc1 (stereo unspecified) 0.166%
Cc1ccc(C)c(NC(c2ccccc2)c2nnc(-c3ccccc3F)o2)c1 (stereo unspecified) -3.41%
Clc1ccc(CCNc2nc3cc(Cl)c(Cl)cc3n3cnnc23)cc1 -2.27%
COc1ccc(CCN2C(=O)N(c3cccc(C)c3)C(=O)C2CC(=O)Nc2ccccc2)cc1OC (stereo unspecified) -0.552%
COc1cc(-c2nc(SCC(=O)Nc3ccc4c(c3)OCO4)c(-c3ccccc3)[nH]2)cc(OC)c1OC -16.1%
COc1ccc(-c2nnc(SCC(=O)N3CCC(C)CC3)o2)cc1 -23%
COc1ccc(-c2nnc(C3CCN(S(=O)(=O)c4cccc(Cl)c4)CC3)o2)cc1 -18.5%
COc1ccccc1CNC(=O)CSc1ncc(S(=O)(=O)c2ccc(C)c(Cl)c2)c(=O)[nH]1 -11.2%
COc1ccc(OCCn2c(NC(=O)c3ccc(OC)cc3)nc3ccccc32)cc1 -12.7%
CNC(=O)C1CCC(Cn2c(=O)c3sccc3n(CC(=O)N3CCCC(C)C3)c2=O)CC1 (stereo unspecified) -0.0668%
COCCCNC(=O)C1CCN(Cc2cc3ccccc3n2Cc2cccc(C)c2)CC1 -4.22%
CCOc1ccc(-c2nnc(SCC(=O)Nc3cccc(C#N)c3)o2)cc1 5.04%
CCCCOC(=O)c1c(C)oc2c1cc(NS(=O)(=O)c1cc(OC)ccc1OC)c1ccccc12 4.11%
COc1cccc(NC(=O)Nc2ccc3c(c2)N(C)C(=O)c2ccccc2S3)c1 -28%
CC1CCN(C(=O)Cn2c(-c3cccs3)cc3cc(Cl)ccc32)CC1 -2.06%
COc1ccc(-c2c(C)c3ccc(O)c(CN4CCOCC4)c3oc2=O)cc1OC -0.937%
Cc1cc(C)c2c(c1)c(C)cc1nnc(SCC(=O)c3ccccc3)n12 -6.23%
Cc1ccc(C)c(NC(=O)C(CC(C)C)N2Cc3ccccc3C2=O)c1 (stereo unspecified) -2.61%
O=C(CSc1nccn1Cc1ccc(F)cc1)NCc1ccco1 0.354%
CC(C)(C)c1ccc(C(=O)Nc2ccc(-c3nc4ccccc4o3)c(O)c2)cc1 3.42%
O=C(CN1C(=O)c2ccccc2Sc2ccc(C(=O)N3CCOCC3)cc21)Nc1ccc(Cl)cc1F -0.0998%
CCN(CC)c1ccc2cc(-c3nc4sc5c(c4c(=O)[nH]3)CCC(C(C)(C)C)C5)c(=O)oc2c1 (stereo unspecified) -8.02%
COc1cccc(NC(=O)c2c(C)oc3nc(C)nc(N4CCCC4)c23)c1 6.13%
COc1ccc(CC(=O)Nc2nc3c(s2)CCCC3)cc1 -12.4%
CCC(=O)N1CCc2cc(S(=O)(=O)CCC(=O)N3CCN(c4cccc(C)c4C)CC3)ccc21 -5.47%
Cc1ccc2c(c1)N(C(=O)CCC(=O)NCc1cccc(F)c1)CC(C)O2 (stereo unspecified) -7.94%
CCOc1ccc(-c2cc3c(=O)n(CC(=O)NCc4ccc(F)cc4)ccn3n2)cc1 0%
COc1cccc2cc(-c3nc(-c4ccc(Cl)cc4)cs3)c(=O)oc12 0.62%
CCOC(=O)c1cccc(NC(=O)CCS(=O)(=O)c2ccc3c(c2)CCN3C(=O)CC)c1 -2.22%
O=C(c1ccc(Cl)cc1)n1nc(-c2cccnc2)nc1NCc1ccc(F)cc1 4.63%
CC(=O)c1cccc(NC(=O)c2ccc3nc(Cc4ccccc4)oc3c2)c1 -0.439%
CCCCOc1ccc(C(=O)N(Cc2ccccc2)C2CCS(=O)(=O)C2)cc1 (stereo unspecified) -0.694%
CCn1c(=O)c2sccc2n2c(CCCC(=O)N3CCN(c4ccc(F)cc4)CC3)nnc12 3.69%
Cc1ccc(O)c(NC(=O)C2=CC(c3ccco3)=NS(=O)(=O)N2C)c1 4.17%
COC(=O)c1ccc(NC(=O)C(=O)NCCc2csc(-c3ccc(F)cc3)n2)cc1 -1.28%
O=C(CSc1ncccc1C(=O)Oc1ccccc1Cl)Nc1ccc(C(F)(F)F)cc1Cl -0.302%
COc1ccc(N2CCN(Cc3nc4c(c(=O)[nH]c(=O)n4C)n3Cc3ccccc3C)CC2)cc1 -12.4%
Cc1csc2nc(COC(=O)CNC(=O)c3ccccc3)cc(=O)n12 1.71%
O=c1oc2ccccc2cc1-c1cn2cc(Cc3cc(Cl)ccc3Cl)sc2n1 -7.33%
Cc1ccc(CN(C(=O)COc2ccccc2[N+](=O)[O-])c2ccccn2)o1 -17.4%
CCN(CC)S(=O)(=O)c1ccc2c(c1)N(CC(=O)Nc1cccc(C#N)c1)C(=O)CO2 -5.65%
CCc1nnc(NC(=O)CSc2nc3c([nH]c4ccccc43)c(=O)n2-c2ccc(Cl)cc2)s1 -4.56%
FC(F)(F)c1cc(-c2ccccc2)nc2cc(-c3ccccc3)nn12 5.29%
Cc1ccc2onc(CC(=O)N3CCN(c4cccc(Cl)c4)CC3)c2c1 0%
COc1ccc(NC(=O)Cn2c(=O)oc3cc(S(=O)(=O)N4CCCCCC4)ccc32)cc1OC -13.8%
Cc1cc(F)ccc1NC(=O)Cn1cc(S(=O)(=O)NC(C)C)c(S(=O)(=O)NC(C)C)c1 0.561%
CCCCSc1nc2sc3c(c2c(=O)n1-c1ccccc1C)CC(C)(C)OC3 8.04%
